# Measured values reported in article PMC6212790.
# The list shows a part of the results. At the low end of the ranking the order means little.
# Target: T1, GST-Rok (full length) (UniProt O34857)
# T1 sequence: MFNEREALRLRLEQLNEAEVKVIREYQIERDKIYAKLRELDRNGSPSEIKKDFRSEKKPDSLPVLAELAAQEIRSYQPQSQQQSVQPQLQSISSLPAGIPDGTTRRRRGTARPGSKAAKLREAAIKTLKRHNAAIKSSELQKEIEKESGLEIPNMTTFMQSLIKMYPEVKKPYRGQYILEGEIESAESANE
# Assay: protein binding microarray;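 further: rank score from −0.5 (least bound) to 0.5 (best bound)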
# Conditions: Rok is a gene silencer of Bacillus subtilis; high values mean tight binding; most listed sequences are background and not binding sites; double strand, one strand shown
row,Sequence,binding signal [E-score]
1,ACCTAATA,0.176
2,ACCCTCGC,-0.0467
3,GGATAACA,0.199
4,CGTCTTGA,-0.147
5,ATTGGCTC,-0.0706
6,TCTGCTCA,0.0881
7,ACGCTAGG,-0.0353
8,CAGTACAG,0.132
9,CATCATAG,0.129
10,CTTCAAAA,-0.0626
11,GCGAGGCA,-0.26
12,ATACAAAA,0.278
13,ACTCTACG,0.117
14,GGAAACAA,0.207
15,AATCCCAA,0.0249
16,AACCGAGA,-0.0875
17,AAGTGGAT,0.0996
18,TAAAAATA,0.369
19,CGTCTCAC,-0.207
20,GATTTTAA,0.254
21,AAATCACA,0.117
22,CACCACGG,-0.0449
23,ATTTTTCG,0.226
24,AATATCTC,0.203
25,ACCATTTA,0.238

row,Sequence,binding signal [E-score]
1,AGGCACTG,-0.0252
2,CTTTTGCA,0.00115
3,GAGTTAGA,0.214
4,CGTAGAAA,0.359
5,AATAGTTG,0.313
6,CGAAATCA,0.144
7,CCCAACAA,-0.0669
8,AACTGCCG,-0.073
9,CCGGGTTA,-0.0958
10,CGGGCACC,-0.352
11,ACATTTAA,0.0958
12,CAGAATAA,0.0816
13,AGCTGACA,-0.0391
14,CACGATGG,-0.0893
15,GTTCTGAA,0.066
16,AGTGCCAC,-0.174
17,CCCGCAAC,-0.00234
18,CGTCGGAG,-0.255
19,ATAGGCTA,0.139
20,TCACAGGA,-0.0027
21,CCGCTGCA,-0.112
22,GTCTGAAC,-0.103
23,CACGTATG,0.0605
24,CTTATTTA,0.148
25,AGATGCCA,-0.0828

row,Sequence,binding signal [E-score]
1,CTCGCTGC,-0.0165
2,AGTTAATA,0.281
3,TAACCGAA,0.12
4,TAAGCAAA,0.208
5,AGGACTTA,-0.0924
6,AATCGACT,0.0535
7,GGATCGAA,-0.0686
8,ACGTCATG,-0.0357
9,ACAGAATC,0.113
10,AAGAACTG,-0.0578
11,ACACCTGT,-0.0296
12,GCGTGGTA,0.164
13,AAAGAGGA,-0.107
14,GCTCGTAC,-0.0724
15,CTAGCGGC,0.00561
16,AATATGTA,0.416
17,CATCACGA,-0.00103
18,AAATTCGA,0.144
19,CCATAGAG,-0.179
20,TCAGCAGA,-0.0651
21,AATCCTCA,0.0559
22,CAACCCCA,-0.306
23,AGTGGTTG,0.00567
24,CCTTTCCC,-0.329
25,GCTCTAAA,-0.00769

row,Sequence,binding signal [E-score]
1,ATTTGAGA,0.101
2,AAATATGC,0.223
3,GCCTAAGA,-0.0322
4,GAGTACCC,-0.131
5,AATCTACC,0.437
6,AAATCATG,-0.143
7,CAGTAACC,0.0661
8,ACTTACCT,0.0398
9,GTGTTCAA,0.0117
10,ATAGATAT,0.374
11,ACCCGCGC,-0.214
12,ACAAAGCC,-0.0156
13,CAATTGGA,0.112
14,GGAACGAC,-0.0783
15,ATGCTCTA,-0.0712
16,GCGGCCGC,-0.279
17,GTTGGCTA,-0.0143
18,CGAGGCCC,-0.259
19,CGTTAAAG,-0.00944
20,GGCTAATA,-0.076
21,CGTCGTGC,-0.32
22,CACTATGG,-0.0716
23,ACCTAGAG,-0.147
24,CCAGACTA,0.0332
25,CCAGCTTA,-0.207

row,Sequence,binding signal [E-score]
1,AATGTCTA,0.15
2,ATGAGGAG,-0.258
3,ACAACGAC,0.0795
4,GACTAACC,0.0811
5,CGACATGC,0.00681
6,CTACCCGC,-0.112
7,AGAAGGCC,-0.414
8,CGACGGCC,-0.217
9,ACGAGACG,-0.0773
10,AGCCTCTG,-0.166
11,ACGCATAG,-0.081
12,AGATGGGC,-0.234
13,AGCAGCTA,0.0936
14,CGGTGTTA,0.0408
15,ACTGGGTC,-0.107
16,AACCCGGA,-0.114
17,ACGACTAA,0.0127
18,GCGCCGTA,-0.132
19,CAGCTACC,0.0183
20,AAATTACT,0.386
21,CGTATCCA,-0.032
22,CAGCACCG,-0.114
23,TACGGCGA,-0.222
24,GCGTCGCC,-0.217
25,ACAACGCC,-0.00977

row,Sequence,binding signal [E-score]
1,AAAGGCGG,-0.244
2,AGAGCATC,-0.142
3,GCAGTATA,0.275
4,CAGACAGG,-0.272
5,CATGGAGC,-0.301
6,AGCCATGG,-0.213
7,CTCACCCC,-0.292
8,AGCTGTCC,-0.311
9,GCCTCCAC,-0.187
10,GAGAAACC,0.0725
11,ACGGAGAA,0.085
12,ATTTCTTC,0.219
13,CCCCTCAC,-0.369
14,AAACATGT,0.0907
15,ACGAGTCT,-0.0337
16,CAGAACGA,-0.151
17,GTGCCGCA,-0.192
18,AGCAAGCA,-0.0589
19,ATTACTGC,0.138
20,AAATGCTA,0.187
21,AAAAGCGA,0.0193
22,TCGAAAGA,-0.0247
23,ACCCAGAC,-0.111
24,CTGAGCCA,-0.121
25,CCTCTGGA,-0.156

row,Sequence,binding signal [E-score]
1,CATCGGGC,-0.215
2,CGGAGTTC,-0.108
3,AGAGTCTA,-0.0659
4,ACCTTGAC,0.0189
5,ACCGGGTG,-0.11
6,GAACCTAC,0.15
7,AAGCTTCC,-0.103
8,AGCAGGCA,-0.201
9,AGGACTGG,-0.0487
10,AGCTACAC,0.191
11,ACTCAACA,0.0726
12,ACCAATAT,0.298
13,CCTACTAC,0.258
14,ATTATGCA,0.229
15,AGAACGCG,-0.0621
16,CAGCTGAC,-0.178
17,TATTCGGA,0.00781
18,GCCTGGTA,-0.302
19,GCAAGATA,-0.127
20,TCTGAAAA,0.0472
21,GCCGGCGC,-0.351
22,CACAGTGA,0.137
23,AGATCTAC,0.332
24,ACTTGGTG,-0.0883
25,CTCGGTCA,-0.0565

row,Sequence,binding signal [E-score]
1,GGGCCCCC,-0.485
2,TACCCGCA,-0.155
3,AGGGCGCA,-0.239
4,ACCGTTAC,0.111
5,AAACGTCC,-0.288
6,ATGGCGGA,-0.276
7,AATGGTGT,0.101
8,CACGGTAG,0.264
9,ATCCCACA,-0.042
10,ATGAGTCA,0.143
11,ACGGTCCT,-0.0816
12,AGCACAAT,0.0485
13,ACAGAGGG,-0.158
14,GAACCCCC,-0.433
15,ACTCGGCG,-0.067
16,GTCGCCCA,-0.31
17,CAGTGTCC,-0.00743
18,ATAGGTTG,0.154
19,TCGGTAAA,0.136
20,CAACCTAC,0.218
21,CCACGGTA,0.0242
22,GCTGCGGA,-0.0422
23,AGGACGCG,-0.171
24,TACTTACA,0.331
25,AGTTTGAT,0.11

row,Sequence,binding signal [E-score]
1,CAGACCCG,-0.323
2,TCGGACGA,-0.114
3,GATGGCCA,-0.13
4,AGGGACTG,-0.164
5,AGCGACCG,-0.317
6,CTGGAGAA,0.21
7,CAGCGTCG,-0.259
8,TAGTGGGA,0.0116
9,CACGGGCC,-0.315
10,AGTCTTCA,0.0416
11,CCGGGTAC,-0.166
12,AGGTAGTA,0.364
13,CGGGAAAA,-0.0788
14,CATATCAA,0.112
15,GTACAGAC,-0.024
16,CTGACGCA,-0.0773
17,GTGAGACA,-0.187
18,GGCTTAGA,-0.287
19,TCCAGGAA,-0.054
20,GCTATTTA,0.13
21,ACTAGGGC,-0.0238
22,GACGGGCC,-0.295
23,AACAGTAG,0.354
24,CCAAGCGC,-0.12
25,AATCACTA,-0.0124

row,Sequence,binding signal [E-score]
1,ATCTCACC,0.0614
2,ATCGCTAG,0.07
3,ATTTGAAA,-0.00558
4,GGAATCGA,0.108
5,AGGCCTTG,-0.351
6,CATCCAAA,-0.102
7,GTACTACA,0.314
8,CCGACCGC,-0.315
9,ATTAACTC,0.092
10,AGCCAAGC,-0.0321
11,AAACATTA,0.165
12,CTACCCCA,0.0549
13,GAATCCAA,0.0152
14,CTTTTTCC,-0.17
15,CCCAGGCG,-0.424
16,ATAGGGAT,0.0682
17,CAGCCCGA,-0.278
18,CGGTACTC,0.0568
19,TTAGTGAA,0.111
20,CAAGCGCG,-0.11
21,GCGACTTA,0.0295
22,ATTTCACG,0.0446
23,GCCCTACA,-0.214
24,AGGTCTTG,-0.0572
25,CACATGGG,-0.0632

row,Sequence,binding signal [E-score]
1,ACGGGATC,-0.0935
2,GCTCTTTA,-0.0828
3,ACGACAAC,0.163
4,AGACGTGC,-0.0331
5,TGATGGCA,-0.0692
6,CTGCCAGA,-0.126
7,CTGTGGGA,-0.175
8,AACGAGGC,-0.00325
9,GCTTGTAC,0.0128
10,AATTTCAC,0.136
11,GATACGCA,0.0774
12,CGTGGTCC,-0.314
13,ACGCAGCC,-0.292
14,ATGCGAGG,-0.0631
15,GGATGGAA,-0.267
16,AATCACAG,0.0127
17,GGATACCA,0.0794
18,AAACTCGT,0.163
19,AAGCAGCC,-0.0807
20,CAGTAGCG,0.143
21,ATCGGCTG,-0.01
22,ATCGTGGA,-0.001
23,GAGGCATC,-0.172
24,GTTACCAA,0.0544
25,AGACAATA,0.0734

row,Sequence,binding signal [E-score]
1,TGGCCCAA,-0.305
2,AAAGCTTT,-0.0317
3,GAATAATC,-0.0982
4,AAATTGGG,0.108
5,ACAAGGGA,-0.18
6,GTTCGTGA,0.0315
7,AGCGCACC,-0.254
8,ATATTAGG,0.149
9,GAAATTGC,0.132
10,CAAACTGG,-0.149
11,CGACGAAC,-0.00956
12,ACCACGTG,-0.15
13,CAACTGCA,0.204
14,CCACGATA,0.0626
15,AGCGTTGG,-0.206
16,AATCTTGG,-0.0853
17,AGGCTTTA,-0.128
18,ATTATAGA,0.353
19,CAGCTGGA,-0.0564
20,CACTAATG,0.154
21,ACTCTGTA,0.118
22,ATCTCAAA,0.135
23,CCGAAACG,-0.141
24,GGTTGTCA,-0.0845
25,AGGGCTAC,-0.216

row,Sequence,binding signal [E-score]
1,GGGTGGGA,-0.134
2,TTCCTCAA,-0.0758
3,ATCTAGGA,0.0234
4,ACAAGTGA,0.015
5,CAGTAATA,0.182
6,CATTCGCA,-0.164
7,ATCACTAA,0.144
8,GGTATATA,0.386
9,ACTACAAG,0.22
10,AGTAGTCC,0.0625
11,ATCCTGTA,0.283
12,GCTTATAA,0.0947
13,TATGGACA,0.0856
14,ATTTTGCC,0.0261
15,CCCAGACC,-0.315
16,AATCAATC,0.0523
17,TAATTTAA,0.356
18,AAACATGA,0.273
19,AATGCAGC,-0.116
20,CGTAAGGC,-0.174
21,ATCCTTAG,0.0244
22,CCAGAGCC,-0.314
23,AGCACAAG,0.0298
24,AAGGATTG,-0.128
25,GTACCAGA,-0.0447

row,Sequence,binding signal [E-score]
1,CAGCACAG,-0.0991
2,GTTTAACA,0.108
3,AGCCCGCG,-0.231
4,CCACGCGG,-0.256
5,AGCGGCGC,-0.27
6,AAGTGCCA,-0.2
7,CAGTGCAA,-0.0853
8,AGTCCCAG,-0.257
9,CCTGGCAA,-0.129
10,ATGGCTCA,-0.169
11,TGGCGTAA,0.106
12,AGAGCTAA,0.151
13,AGGACATC,-0.297
14,CTCCTTAC,-0.194
15,GGGGACAC,-0.289
16,CCTGGGCA,-0.283
17,ACCAGCGG,-0.0305
18,CGTAGGTA,0.347
19,AAACTCGC,-0.0186
